Data from the supplement of paper PMC4967469.
Lines with a small IC50 respond at low doses; a fit beyond the top or the lowest dose is shown as a bound at that dose. AUC, from the same fit, is the share of area under the viability curve across the 256-fold dose range; the more sensitive the line, the further below 1. A top dose marked as inferred comes from the curve model; the source does not state it.

These cell lines were tested with N.N.[Cl][Pt][Cl] [Cisplatin] (assay: Viability of human cancer cell lines after 72 h of drug (GDSC screen)). Conditions: top dose inferred.
Protocol: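 Human cancer cell lines in 384-well plates, medium with 10% serum, drug for 72 h over a 256-fold dose range (nine 2-fold or five 4-fold steps up to the top dose). Adherent lines were fixed and stained with the nucleic acid dye Syto60, suspension lines read with resazurin; signal relative to control wells, capped at 0 and 100%. One two-parameter sigmoid per drug and line, fitted in a mixed model over all curves with the slope shared within a line.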

Row | Cell Line | AUC | IC50 [µM]
1 | NCI-H446 (small cell lung carcinoma, semi-adherent, top dose 10 µM) | 0.965 | > 10
2 | NCI-H460 (large cell lung carcinoma, adherent, top dose 10 µM) | 0.827 | 5.32
3 | NCI-H508 (large intestine, semi-adherent, top dose 10 µM) | 0.96 | > 10
4 | NCI-H510A (small cell lung carcinoma, semi-adherent, top dose 10 µM) | 0.923 | > 10
5 | NCI-H524 (small cell lung carcinoma, suspension, top dose 10 µM) | 0.861 | 7.02
6 | NCI-H526 (small cell lung carcinoma, suspension, top dose 10 µM) | 0.792 | 4.3
7 | NCI-H596 (lung adenocarcinoma, adherent, top dose 10 µM) | 0.974 | > 10
8 | NCI-H630 (large intestine, adherent, top dose 10 µM) | 0.982 | > 10
9 | NCI-H647 (non-small cell lung carcinoma, adherent, top dose 10 µM) | 0.891 | > 10
10 | NCI-H650 (lung adenocarcinoma, adherent, top dose 10 µM) | 0.904 | > 10
11 | NCI-H661 (large cell lung carcinoma, adherent, top dose 10 µM) | 0.839 | 8.95
12 | NCI-H716 (large intestine, suspension, top dose 10 µM) | 0.951 | > 10
13 | NCI-H720 (lung carcinoid, suspension, top dose 10 µM) | 0.975 | > 10
14 | NCI-H747 (large intestine, adherent, top dose 10 µM) | 0.982 | > 10
15 | NCI-H810 (large cell lung carcinoma, adherent, top dose 10 µM) | 0.964 | > 10
16 | NCI-H835 (lung carcinoid, suspension, top dose 10 µM) | 0.981 | > 10
17 | NCI-H838 (lung adenocarcinoma, adherent, top dose 10 µM) | 0.909 | > 10
18 | NCI-H841 (small cell lung carcinoma, adherent, top dose 10 µM) | 0.891 | > 10
19 | NCI-H847 (small cell lung carcinoma, adherent, top dose 10 µM) | 0.993 | > 10
20 | NCI-H929 (myeloma, suspension, top dose 10 µM) | 0.932 | > 10
21 | NCI-H1048 (small cell lung carcinoma, adherent, top dose 10 µM) | 0.896 | > 10
22 | NCI-H1092 (small cell lung carcinoma, suspension, top dose 10 µM) | 0.989 | > 10
23 | NCI-H1105 (small cell lung carcinoma, suspension, top dose 10 µM) | 0.809 | 4.12
24 | NCI-H1155 (large cell lung carcinoma, suspension, top dose 10 µM) | 0.871 | 6.66

Row | Cell Line | AUC | IC50 [µM]
25 | NCI-H1304 (small cell lung carcinoma, suspension, top dose 10 µM) | 0.962 | > 10
26 | NCI-H1341 (small cell lung carcinoma, suspension, top dose 10 µM) | 0.844 | 5.65
27 | NCI-H1395 (lung adenocarcinoma, adherent, top dose 10 µM) | 0.921 | > 10
28 | NCI-H1417 (small cell lung carcinoma, suspension, top dose 6 µM) | 0.722 | 1.82
29 | NCI-H1435 (lung adenocarcinoma, semi-adherent, top dose 10 µM) | 0.993 | > 10
30 | NCI-H1436 (small cell lung carcinoma, suspension, top dose 6 µM) | 0.985 | > 6
31 | NCI-H1437 (lung adenocarcinoma, adherent, top dose 10 µM) | 0.905 | > 10
32 | NCI-H1563 (lung adenocarcinoma, adherent, top dose 10 µM) | 0.921 | > 10
33 | NCI-H1568 (lung adenocarcinoma, adherent, top dose 10 µM) | 0.956 | > 10
34 | NCI-H1581 (large cell lung carcinoma, semi-adherent, top dose 10 µM) | 0.866 | 7.75
35 | NCI-H1623 (lung adenocarcinoma, adherent, top dose 10 µM) | 0.945 | > 10
36 | NCI-H1648 (lung adenocarcinoma, adherent, top dose 10 µM) | 0.933 | > 10
37 | NCI-H1651 (lung adenocarcinoma, adherent, top dose 10 µM) | 0.842 | 7.86
38 | NCI-H1666 (lung adenocarcinoma, semi-adherent, top dose 10 µM) | 0.92 | > 10
39 | NCI-H1688 (small cell lung carcinoma, adherent, top dose 10 µM) | 0.921 | > 10
40 | NCI-H1693 (lung adenocarcinoma, adherent, top dose 10 µM) | 0.926 | > 10
41 | NCI-H1694 (small cell lung carcinoma, suspension, top dose 10 µM) | 0.879 | > 10
42 | NCI-H1703 (lung adenocarcinoma, adherent, top dose 10 µM) | 0.944 | > 10
43 | NCI-H1734 (lung adenocarcinoma, adherent, top dose 10 µM) | 0.838 | 7.74
44 | NCI-H1755 (lung adenocarcinoma, adherent, top dose 10 µM) | 0.964 | > 10
45 | NCI-H1770 (non-small cell lung carcinoma, suspension, top dose 10 µM) | 0.99 | > 10
46 | NCI-H1781 (lung adenocarcinoma, adherent, top dose 10 µM) | 0.805 | 5.05
47 | NCI-H1792 (lung adenocarcinoma, adherent, top dose 10 µM) | 0.902 | > 10
48 | NCI-H1836 (small cell lung carcinoma, suspension, top dose 10 µM) | 0.983 | > 10

Row | Cell Line | AUC | IC50 [µM]
49 | NCI-H1838 (lung adenocarcinoma, adherent, top dose 10 µM) | 0.982 | > 10
50 | NCI-H1869 (lung squamous cell carcinoma, adherent, top dose 10 µM) | 0.955 | > 10
51 | NCI-H1876 (small cell lung carcinoma, adherent, top dose 10 µM) | 0.574 | 0.999
52 | NCI-H1944 (lung adenocarcinoma, adherent, top dose 10 µM) | 0.89 | > 10
53 | NCI-H1963 (small cell lung carcinoma, suspension, top dose 10 µM) | 0.961 | > 10
54 | NCI-H1975 (lung adenocarcinoma, adherent, top dose 10 µM) | 0.935 | > 10
55 | NCI-H1993 (lung adenocarcinoma, adherent, top dose 10 µM) | 0.982 | > 10
56 | NCI-H2009 (lung adenocarcinoma, adherent, top dose 10 µM) | 0.953 | > 10
57 | NCI-H2023 (lung adenocarcinoma, adherent, top dose 10 µM) | 0.809 | 6.88
58 | NCI-H2029 (small cell lung carcinoma, adherent, top dose 10 µM) | 0.992 | > 10
59 | NCI-H2052 (mesothelioma, adherent, top dose 10 µM) | 0.963 | > 10
60 | NCI-H2081 (small cell lung carcinoma, suspension, top dose 6 µM) | 0.913 | > 6
61 | NCI-H2087 (lung adenocarcinoma, semi-adherent, top dose 10 µM) | 0.899 | > 10
62 | NCI-H2110 (non-small cell lung carcinoma, adherent, top dose 10 µM) | 0.835 | 6.78
63 | NCI-H2122 (lung adenocarcinoma, adherent, top dose 10 µM) | 0.898 | > 10
64 | NCI-H2135 (non-small cell lung carcinoma, adherent, top dose 10 µM) | 0.986 | > 10
65 | NCI-H2141 (small cell lung carcinoma, suspension, top dose 10 µM) | 0.968 | > 10
66 | NCI-H2172 (non-small cell lung carcinoma, adherent, top dose 10 µM) | 0.95 | > 10
67 | NCI-H2227 (small cell lung carcinoma, semi-adherent, top dose 10 µM) | 0.887 | > 10
68 | NCI-H2291 (lung adenocarcinoma, adherent, top dose 10 µM) | 0.977 | > 10
69 | NCI-H2342 (lung adenocarcinoma, adherent, top dose 10 µM) | 0.939 | > 10
70 | NCI-H2347 (lung adenocarcinoma, adherent, top dose 10 µM) | 0.962 | > 10
71 | NCI-H2405 (lung adenocarcinoma, adherent, top dose 10 µM) | 0.914 | > 10
